# From the supplement of paper PMC8728848
# Some of the results follow.
# Key:
# Assay in all cases: glycan array binding signal (z-score within array); higher = stronger binding
# Details in all cases: glycan notation: IUPAC condensed, linker removed
# [1] = molecular target: Man(a1-3)[Man(a1-6)]Man(a1-6)[Man(a1-3)]Man(b1-4)GlcNAc(b1-4)GlcNAc
# Method in brief: (§1)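 From the Consortium for Functional Glycomics database, 3228 arrays were curated, keeping only those whose protein sequence was available. Binding is given as a within-array Z-score averaged across arrays sharing a protein sequence and across linkers. Negative Z-scores can be read as non-binding.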
# [2] = molecular target: Man(a1-3)[Man(a1-6)]Man(b1-4)GlcNAc(b1-4)GlcNAc
# Method in brief: as §1
# [3] = molecular target: Man(a1-3)[Man(a1-6)]Man(b1-4)GlcNAc(b1-4)[Fuc(a1-6)]GlcNAc
# Method in brief: as §1
# Man(a1-6)Man = molecular target: Man(a1-6)Man
# Method in brief: as §1
# Man(b1-4)GlcNAc = molecular target: Man(b1-4)GlcNAc
# Method in brief: as §1
# MurNAc(b1-4)GlcNAc = molecular target: MurNAc(b1-4)GlcNAc
# Method in brief: as §1
# Neu5Ac(a2-3)Gal = molecular target: Neu5Ac(a2-3)Gal
# Method in brief: as §1
# [4] = molecular target: Neu5Ac(a2-3)Gal(b1-3)GalNAc
# Method in brief: as §1
# [5] = molecular target: Neu5Ac(a2-3)Gal(b1-3)GalNAc(b1-3)Gal(a1-4)Gal(b1-4)Glc
# Method in brief: as §1
# [6] = molecular target: Neu5Ac(a2-3)Gal(b1-3)GalNAc(b1-4)[Neu5Ac(a2-3)]Gal(b1-4)Glc
# Method in brief: as §1
# [7] = molecular target: Neu5Ac(a2-3)Gal(b1-3)GalNAc(b1-4)[Neu5Ac(a2-8)Neu5Ac(a2-3)]Gal(b1-4)Glc
# Method in brief: as §1
# [8] = molecular target: Neu5Ac(a2-3)Gal(b1-3)GalNAc6S
# Method in brief: as §1
# [9] = molecular target: Neu5Ac(a2-3)Gal(b1-3)GlcNAc
# Method in brief: as §1
# [10] = molecular target: Neu5Ac(a2-3)Gal(b1-3)GlcNAc(b1-2)Man
# Method in brief: as §1
# [11] = molecular target: Neu5Ac(a2-3)Gal(b1-3)GlcNAc(b1-2)Man(a1-3)[GlcNAc(b1-4)][Neu5Ac(a2-3)Gal(b1-3)GlcNAc(b1-2)Man(a1-6)]Man(b1-4)GlcNAc(b1-4)GlcNAc
# Method in brief: as §1
# [12] = molecular target: Neu5Ac(a2-3)Gal(b1-3)GlcNAc(b1-2)Man(a1-3)[Neu5Ac(a2-3)Gal(b1-3)GlcNAc(b1-2)Man(a1-6)]Man(b1-4)GlcNAc(b1-4)GlcNAc
# Method in brief: as §1
# [13] = molecular target: Neu5Ac(a2-3)Gal(b1-3)GlcNAc(b1-3)Gal(b1-3)GlcNAc
# Method in brief: as §1
# [14] = molecular target: Neu5Ac(a2-3)Gal(b1-3)GlcNAc(b1-3)Gal(b1-4)GlcNAc
# Method in brief: as §1
# [15] = molecular target: Neu5Ac(a2-3)Gal(b1-3)GlcNAc(b1-3)GalNAc
# Method in brief: as §1
# [16] = molecular target: Neu5Ac(a2-3)Gal(b1-3)GlcNAc(b1-4)Gal(b1-4)Glc
# Method in brief: as §1
# [17] = molecular target: Neu5Ac(a2-3)Gal(b1-3)GlcNAc(b1-6)GalNAc
# Method in brief: as §1
# [18] = molecular target: Neu5Ac(a2-3)Gal(b1-3)GlcNAc6S
# Method in brief: as §1
# [19] = molecular target: Neu5Ac(a2-3)Gal(b1-3)[Fuc(a1-4)]GlcNAc
# Method in brief: as §1
# [20] = molecular target: Neu5Ac(a2-3)Gal(b1-3)[Fuc(a1-4)]GlcNAc(b1-3)Gal(b1-3)[Fuc(a1-4)]GlcNAc
# Method in brief: as §1
# [21] = molecular target: Neu5Ac(a2-3)Gal(b1-3)[Fuc(a1-4)]GlcNAc(b1-3)Gal(b1-4)[Fuc(a1-3)]GlcNAc
# Method in brief: as §1
# [22] = molecular target: Neu5Ac(a2-3)Gal(b1-3)[GlcNAc(b1-6)]GalNAc
# Method in brief: as §1
# [23] = molecular target: Neu5Ac(a2-3)Gal(b1-3)[Neu5Ac(a2-6)]GalNAc
# Method in brief: as §1
# [24] = molecular target: Neu5Ac(a2-3)Gal(b1-3)[Neu5Ac(a2-6)]GlcNAc(b1-3)[Fuc(a1-3)[Gal(b1-4)]GlcNAc(b1-6)]Gal(b1-4)Glc
# Method in brief: as §1
# [25] = molecular target: Neu5Ac(a2-3)Gal(b1-3)]Neu5Ac(a2-3)Gal(b1-4)]GlcNAc
# Method in brief: as §1
# Neu5Ac(a2-3)Gal(b1-4)Glc = molecular target: Neu5Ac(a2-3)Gal(b1-4)Glc
# Method in brief: as §1
# [26] = molecular target: Neu5Ac(a2-3)Gal(b1-4)GlcNAc
# Method in brief: as §1
# [27] = molecular target: Neu5Ac(a2-3)Gal(b1-4)GlcNAc(b1-2)Man
# Method in brief: as §1
# [28] = molecular target: Neu5Ac(a2-3)Gal(b1-4)GlcNAc(b1-2)Man(a1-3)[GlcNAc(b1-4)][Neu5Ac(a2-3)Gal(b1-4)GlcNAc(b1-2)Man(a1-6)]Man(b1-4)GlcNAc(b1-4)GlcNAc
# Method in brief: as §1
# [29] = molecular target: Neu5Ac(a2-3)Gal(b1-4)GlcNAc(b1-2)Man(a1-3)[Neu5Ac(a2-3)Gal(b1-4)GlcNAc(b1-2)Man(a1-6)]Man(b1-4)GlcNAc(b1-4)GlcNAc
# Method in brief: as §1
# [30] = molecular target: Neu5Ac(a2-3)Gal(b1-4)GlcNAc(b1-2)Man(a1-3)[Neu5Ac(a2-3)Gal(b1-4)GlcNAc(b1-2)Man(a1-6)]Man(b1-4)GlcNAc(b1-4)[Fuc(a1-6)]GlcNAc
# Method in brief: as §1
# [31] = molecular target: Neu5Ac(a2-3)Gal(b1-4)GlcNAc(b1-2)Man(a1-3)[Neu5Ac(a2-6)Gal(b1-4)GlcNAc(b1-2)Man(a1-6)]Man(b1-4)GlcNAc(b1-4)GlcNAc
# Method in brief: as §1
# [32] = molecular target: Neu5Ac(a2-3)Gal(b1-4)GlcNAc(b1-2)[Neu5Ac(a2-3)Gal(b1-4)GlcNAc(b1-4)]Man(a1-3)[GlcNAc(b1-4)][Neu5Ac(a2-3)Gal(b1-4)GlcNAc(b1-2)[Neu5Ac(a2-3)Gal(b1-4)GlcNAc(b1-6)]Man(a1-6)]Man(b1-4)GlcNAc(b1-4)GlcNAc
# Method in brief: as §1
# [33] = molecular target: Neu5Ac(a2-3)Gal(b1-4)GlcNAc(b1-2)[Neu5Ac(a2-3)Gal(b1-4)GlcNAc(b1-4)]Man(a1-3)[GlcNAc(b1-4)][Neu5Ac(a2-3)Gal(b1-4)GlcNAc(b1-4)Man(a1-6)]Man(b1-4)GlcNAc(b1-4)GlcNAc
# Method in brief: as §1
binder,measurement,setting,value
ACA (Amaranthus caudatus) (protein) MAGLPVIMCLKSNNNQKYLRYQSDNIQQYGLLQFSADKILDPLAQFEVEPSKTYDGLVHIKSRYTNKYLVRWSPNHYWITASANEPDENKSNWACTLFKPLYVEEGNMKKVRLLHVQLGHYTQNYTVGGSFVSYLFAESSQIDTGSKDVFHVIDWKSIFQFPKRYVTFKGNNGKYLGVITINQLPCLQFGYDNLNDPKVAHEMFVTSNGTICIKSTYMNKFWRLSTDDWILVDGNDPRETNEAAALFRSDVHDFNVISLLNMQKTWFIKRFTSGKPGFINCMNAATQNVDETAILEIIELGSNN,glycan array binding signal (z-score),[1],-0.156
same,glycan array binding signal (z-score),[2],-0.462
same,glycan array binding signal (z-score),[3],-0.62
same,glycan array binding signal (z-score),Man(a1-6)Man,1.4
same,glycan array binding signal (z-score),Man(b1-4)GlcNAc,-0.101
same,glycan array binding signal (z-score),MurNAc(b1-4)GlcNAc,-0.012
same,glycan array binding signal (z-score),Neu5Ac(a2-3)Gal,-0.232
same,glycan array binding signal (z-score),[4],-0.335
same,glycan array binding signal (z-score),[5],-0.168
same,glycan array binding signal (z-score),[6],-0.916
same,glycan array binding signal (z-score),[7],0.052
same,glycan array binding signal (z-score),[8],-0.248
same,glycan array binding signal (z-score),[9],0.142
same,glycan array binding signal (z-score),[10],-0.47
same,glycan array binding signal (z-score),[11],-0.413
same,glycan array binding signal (z-score),[12],0.136
same,glycan array binding signal (z-score),[13],-0.664
same,glycan array binding signal (z-score),[14],-0.237
same,glycan array binding signal (z-score),[15],-0.045
same,glycan array binding signal (z-score),[16],-0.059
same,glycan array binding signal (z-score),[17],-0.683
same,glycan array binding signal (z-score),[18],0.512
same,glycan array binding signal (z-score),[19],-0.247
same,glycan array binding signal (z-score),[20],-0.493
same,glycan array binding signal (z-score),[21],-0.248
same,glycan array binding signal (z-score),[22],-0.266
same,glycan array binding signal (z-score),[23],-0.397
same,glycan array binding signal (z-score),[24],-0.262
same,glycan array binding signal (z-score),[25],-0.479
same,glycan array binding signal (z-score),Neu5Ac(a2-3)Gal(b1-4)Glc,0.1
same,glycan array binding signal (z-score),[26],-0.176
same,glycan array binding signal (z-score),[27],0.462
same,glycan array binding signal (z-score),[28],-0.581
same,glycan array binding signal (z-score),[29],-0.59
same,glycan array binding signal (z-score),[30],-0.317
same,glycan array binding signal (z-score),[31],-0.42
same,glycan array binding signal (z-score),[32],-0.519
same,glycan array binding signal (z-score),[33],0.339
